The data scatter; read single values as rough.
Assay: amyloid nucleation score relative to library mode (yeast Sup35 reporter selection) (log enrichment difference); higher = more amyloid nucleation; sequences are the first 22 residues of the Bri2 peptide extended by up to 12 random residues
Conditions: random library (experiment): 1;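 active = nucleation score significantly above 0 at FDR 0.05; inactive = not significantly above 0 or absent from output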
Method: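 Random C-terminal extensions of the 22-aa Bri2 peptide by 12 NNK codons; premature stops give shorter extensions. Peptides were fused to the Sup35 nucleation domain in S. cerevisiae [psi-pin-] and selected on -ADE-URA plates for 7 d at 30 °C. The nucleation score is log(output/input), centred to the mode of each of 3 independent libraries (1 input, 3 technical output replicates), with duplicates merged. Sequences absent from the output ('random_non_nuc') were imputed with the library mode value, so they are given as censored (<). Nucleators are scores significantly >0 at FDR 0.05.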
With EASNCFAIRHFENKFAVETLICCCSLVLRVVLTY the amyloid nucleation score was “inactive”.
Sequence EASNCFAIRHFENKFAVETLICCCSSSPSEIVGR has an amyloid nucleation score of 7.58.
With EASNCFAIRHFENKFAVETLICCCTLPAFPRVNW the amyloid nucleation score was 4.36.
For EASNCFAIRHFENKFAVETLICCCVVLGLGRTRG, the amyloid nucleation score was 2.62.
EASNCFAIRHFENKFAVETLICCCWSTGLQDQVR showed an amyloid nucleation score of 6.37.
EASNCFAIRHFENKFAVETLICCCWSWGRNASLR gave an amyloid nucleation score of 4.08.
For EASNCFAIRHFENKFAVETLICCCWYFNVQLVTH, the amyloid nucleation score was “inactive”.
Sequence EASNCFAIRHFENKFAVETLICCDASSACFFLSW has an amyloid nucleation score of 7.93.
Sequence EASNCFAIRHFENKFAVETLICCDCCYWLCVALA has an amyloid nucleation score of 7.31.
EASNCFAIRHFENKFAVETLICCDFTSVI showed an amyloid nucleation score of 7.75.
For EASNCFAIRHFENKFAVETLICCDKVLANQNVDN, the amyloid nucleation score was “inactive”.
With EASNCFAIRHFENKFAVETLICCDMLYEWMQS the amyloid nucleation score was 0.674.
In the case of EASNCFAIRHFENKFAVETLICCDQPDARTSHGE, the amyloid nucleation score is reported as “inactive”.
In the case of EASNCFAIRHFENKFAVETLICCDRP, the amyloid nucleation score is reported as 0.136.
With EASNCFAIRHFENKFAVETLICCDRSWQNRSHFV the amyloid nucleation score was “inactive”.
With EASNCFAIRHFENKFAVETLICCDVFVVLLNGPL the amyloid nucleation score was 7.19.
EASNCFAIRHFENKFAVETLICCDVHK gave an amyloid nucleation score of -0.00976.
With EASNCFAIRHFENKFAVETLICCDVKYAMESGRS the amyloid nucleation score was 1.49.
EASNCFAIRHFENKFAVETLICCEAFRVNKVRLY showed an amyloid nucleation score of -0.0385.
In the case of EASNCFAIRHFENKFAVETLICCEAHHEHGDPSP, the amyloid nucleation score is reported as “inactive”.
For EASNCFAIRHFENKFAVETLICCECV, the amyloid nucleation score was “inactive”.
For EASNCFAIRHFENKFAVETLICCEE, the amyloid nucleation score was “inactive”.
In the case of EASNCFAIRHFENKFAVETLICCEELGHRQVRCT, the amyloid nucleation score is reported as “inactive”.
EASNCFAIRHFENKFAVETLICCEFSGGLSSVRT showed an amyloid nucleation score of 4.21.
With EASNCFAIRHFENKFAVETLICCELERGWVLSLW the amyloid nucleation score was “inactive”.
For EASNCFAIRHFENKFAVETLICCEMTSNVDETLS, the amyloid nucleation score was 3.81.
For EASNCFAIRHFENKFAVETLICCEPGHRSRVASL, the amyloid nucleation score was “inactive”.
In the case of EASNCFAIRHFENKFAVETLICCESELNHVCSST, the amyloid nucleation score is reported as “inactive”.
Work on EASNCFAIRHFENKFAVETLICCESTCMSWVLRT yielded an amyloid nucleation score of 6.35.
With EASNCFAIRHFENKFAVETLICCETDI the amyloid nucleation score was “inactive”.
In the case of EASNCFAIRHFENKFAVETLICCEWLGLYANAAL, the amyloid nucleation score is reported as 2.88.
In the case of EASNCFAIRHFENKFAVETLICCFALVRESEG, the amyloid nucleation score is reported as 7.82.
With EASNCFAIRHFENKFAVETLICCFERLGSIERGW the amyloid nucleation score was 2.98.
EASNCFAIRHFENKFAVETLICCFFYPLACHCNG showed an amyloid nucleation score of 6.56.
EASNCFAIRHFENKFAVETLICCFHRCLLYDAGD gave an amyloid nucleation score of 3.61.
EASNCFAIRHFENKFAVETLICCFIMTS showed an amyloid nucleation score of 7.26.
Sequence EASNCFAIRHFENKFAVETLICCFKISLW has an amyloid nucleation score of 6.62.
For EASNCFAIRHFENKFAVETLICCFKKSEDVSEEK, the amyloid nucleation score was 1.18.
With EASNCFAIRHFENKFAVETLICCFKVL the amyloid nucleation score was 5.3.
For EASNCFAIRHFENKFAVETLICCFLCISDRRVGV, the amyloid nucleation score was 6.64.
Sequence EASNCFAIRHFENKFAVETLICCFLGTPNLAMM has an amyloid nucleation score of 7.92.
For EASNCFAIRHFENKFAVETLICCFMGGRSVCVPG, the amyloid nucleation score was 3.79.
For EASNCFAIRHFENKFAVETLICCFNDVLIRAHLG, the amyloid nucleation score was “inactive”.
EASNCFAIRHFENKFAVETLICCFNYI gave an amyloid nucleation score of 8.26.

Same assay, conditions: random library (experiment): 2
In the case of EASNCFAIRHFENKFAVETLICCCSFLLR, the amyloid nucleation score is reported as 5.37.
EASNCFAIRHFENKFAVETLICCCSSYNSGNVFG gave an amyloid nucleation score of 8.49.
EASNCFAIRHFENKFAVETLICCCTSVNILVYLT showed an amyloid nucleation score of 4.78.
For EASNCFAIRHFENKFAVETLICCCVHHDVSALWY, the amyloid nucleation score was 8.23.
With EASNCFAIRHFENKFAVETLICCCYLYCFVSFVR the amyloid nucleation score was “inactive”.
With EASNCFAIRHFENKFAVETLICCCYVTFMGARQE the amyloid nucleation score was 4.8.
In the case of EASNCFAIRHFENKFAVETLICCCYYFSRCVMVV, the amyloid nucleation score is reported as “inactive”.
EASNCFAIRHFENKFAVETLICCDCLY gave an amyloid nucleation score of 8.05.
Sequence EASNCFAIRHFENKFAVETLICCDDSHSLFYG has an amyloid nucleation score of 6.06.
EASNCFAIRHFENKFAVETLICCDFYILLYSFNR showed an amyloid nucleation score of 7.54.
In the case of EASNCFAIRHFENKFAVETLICCDI, the amyloid nucleation score is reported as “inactive”.
Sequence EASNCFAIRHFENKFAVETLICCDKSFRWCRKGG has an amyloid nucleation score of 1.64.
EASNCFAIRHFENKFAVETLICCDLFQLWVKGLT showed an amyloid nucleation score of 5.46.
Sequence EASNCFAIRHFENKFAVETLICCDLIVLLNGTGG has an amyloid nucleation score of 8.44.
For EASNCFAIRHFENKFAVETLICCDLSFYIGQVIQ, the amyloid nucleation score was 8.19.
For EASNCFAIRHFENKFAVETLICCDNCFT, the amyloid nucleation score was 6.29.
EASNCFAIRHFENKFAVETLICCDNSIHFCSVRS gave an amyloid nucleation score of -0.104.
With EASNCFAIRHFENKFAVETLICCDPVRWCRVSCG the amyloid nucleation score was “inactive”.
With EASNCFAIRHFENKFAVETLICCDRESFIIWGSR the amyloid nucleation score was 3.14.
Work on EASNCFAIRHFENKFAVETLICCDRSHFLCNMLR yielded an amyloid nucleation score of 4.58.
With EASNCFAIRHFENKFAVETLICCDSGSITVITFL the amyloid nucleation score was “inactive”.
EASNCFAIRHFENKFAVETLICCDVRF showed an amyloid nucleation score of 6.66.
With EASNCFAIRHFENKFAVETLICCDWKIANKLMAR the amyloid nucleation score was “inactive”.
EASNCFAIRHFENKFAVETLICCDYC gave an amyloid nucleation score of 7.54.
In the case of EASNCFAIRHFENKFAVETLICCEFLIHYRIAMY, the amyloid nucleation score is reported as “inactive”.
With EASNCFAIRHFENKFAVETLICCEKLACVSFISE the amyloid nucleation score was 8.01.
For EASNCFAIRHFENKFAVETLICCENGSYWLWGSA, the amyloid nucleation score was 5.77.
With EASNCFAIRHFENKFAVETLICCEQETIL the amyloid nucleation score was “inactive”.
In the case of EASNCFAIRHFENKFAVETLICCESFPFYSLQPA, the amyloid nucleation score is reported as “inactive”.
For EASNCFAIRHFENKFAVETLICCEVFGCDMAICQ, the amyloid nucleation score was 7.68.
Sequence EASNCFAIRHFENKFAVETLICCEVQQLRDEAMM has an amyloid nucleation score of -0.0677.
In the case of EASNCFAIRHFENKFAVETLICCEYFLRGPSIRL, the amyloid nucleation score is reported as “inactive”.
In the case of EASNCFAIRHFENKFAVETLICCF, the amyloid nucleation score is reported as 6.21.
In the case of EASNCFAIRHFENKFAVETLICCFAFFMCCISSM, the amyloid nucleation score is reported as “inactive”.
Sequence EASNCFAIRHFENKFAVETLICCFCFWYKNKRVL has an amyloid nucleation score of -0.255.
For EASNCFAIRHFENKFAVETLICCFDNMDLVKCCG, the amyloid nucleation score was “inactive”.
EASNCFAIRHFENKFAVETLICCFEVDKLGSSAG showed an amyloid nucleation score of 4.29.
For EASNCFAIRHFENKFAVETLICCFGSTDKIHFV, the amyloid nucleation score was 6.77.
For EASNCFAIRHFENKFAVETLICCFHKDRVYIFGV, the amyloid nucleation score was “inactive”.
Sequence EASNCFAIRHFENKFAVETLICCFHSVSKSCSRE has an amyloid nucleation score of 4.16.
For EASNCFAIRHFENKFAVETLICCFLR, the amyloid nucleation score was 4.77.

Same assay, conditions: random library (experiment): 3
Sequence EASNCFAIRHFENKFAVETLICCCTLNGEYYRMR has an amyloid nucleation score of 7.33.
EASNCFAIRHFENKFAVETLICCCVDVDVCANVW showed an amyloid nucleation score of 8.38.
In the case of EASNCFAIRHFENKFAVETLICCCWLGLNMVYGT, the amyloid nucleation score is reported as 1.3.
For EASNCFAIRHFENKFAVETLICCCYGLR, the amyloid nucleation score was 7.51.
With EASNCFAIRHFENKFAVETLICCDADSVERCCKG the amyloid nucleation score was “inactive”.
For EASNCFAIRHFENKFAVETLICCDCLCTLSCGHW, the amyloid nucleation score was 6.46.
Work on EASNCFAIRHFENKFAVETLICCDMA yielded an amyloid nucleation score of 5.67.
In the case of EASNCFAIRHFENKFAVETLICCDRS, the amyloid nucleation score is reported as 5.07.
In the case of EASNCFAIRHFENKFAVETLICCDRYYWCASLVW, the amyloid nucleation score is reported as “inactive”.
With EASNCFAIRHFENKFAVETLICCDSFVKM the amyloid nucleation score was 6.67.
For EASNCFAIRHFENKFAVETLICCDSIEVWRVPR, the amyloid nucleation score was 5.62.
For EASNCFAIRHFENKFAVETLICCDSMLNVVGGSR, the amyloid nucleation score was 5.16.
With EASNCFAIRHFENKFAVETLICCDTIYPCLCFSV the amyloid nucleation score was 7.87.
Work on EASNCFAIRHFENKFAVETLICCDVTVYFYELNA yielded an amyloid nucleation score of 4.02.
For EASNCFAIRHFENKFAVETLICCDWWWYGEIAFW, the amyloid nucleation score was “inactive”.
In the case of EASNCFAIRHFENKFAVETLICCDYDTNYSFRVV, the amyloid nucleation score is reported as 1.54.
EASNCFAIRHFENKFAVETLICCEAYHPMSAWGI gave an amyloid nucleation score of 3.08.
Work on EASNCFAIRHFENKFAVETLICCEFHVLKRNMSW yielded an amyloid nucleation score of 3.8.
EASNCFAIRHFENKFAVETLICCEGHAHW showed an amyloid nucleation score of 3.93.
In the case of EASNCFAIRHFENKFAVETLICCEGMDVGAEPRV, the amyloid nucleation score is reported as “inactive”.
With EASNCFAIRHFENKFAVETLICCELGD the amyloid nucleation score was 4.5.
EASNCFAIRHFENKFAVETLICCENAFVETVETR gave an amyloid nucleation score of 2.39.
Work on EASNCFAIRHFENKFAVETLICCENAKINFCRDP yielded an amyloid nucleation score of 9.6.
Sequence EASNCFAIRHFENKFAVETLICCENTL has an amyloid nucleation score of 5.62.
In the case of EASNCFAIRHFENKFAVETLICCEPDLARQTTWG, the amyloid nucleation score is reported as 0.749.
In the case of EASNCFAIRHFENKFAVETLICCER, the amyloid nucleation score is reported as “inactive”.
With EASNCFAIRHFENKFAVETLICCERVGSLICSCV the amyloid nucleation score was 0.
For EASNCFAIRHFENKFAVETLICCEV, the amyloid nucleation score was “inactive”.
Work on EASNCFAIRHFENKFAVETLICCFACSLNRVNGM yielded an amyloid nucleation score of 8.59.
Work on EASNCFAIRHFENKFAVETLICCFEVRDPAGYAP yielded an amyloid nucleation score of 7.64.
In the case of EASNCFAIRHFENKFAVETLICCFHWAHVCTAYV, the amyloid nucleation score is reported as “inactive”.
Sequence EASNCFAIRHFENKFAVETLICCFMRDNVQLSKL has an amyloid nucleation score of 5.36.
In the case of EASNCFAIRHFENKFAVETLICCFPFGFWYGILV, the amyloid nucleation score is reported as 0.721.

— the supplement of paper PMC12067230
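Note: [psi-pin-] Saccharomyces cerevisiae expressing SupN fusions, induced by 100 µM Cu2SO4, selected 7 d at 30 °C without adenine and uracil, scored by deep sequencing of output versus input.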
